The subject of the experiment is MDA-MB-468 breast. Kind of experiment: NCI anticancer screen, dose series, 48 h.

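Compound exposure: 48 hours, 5 concentrations, 96-well plates. At the TGI there is no net growth.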 Not every entry of the source has a single result; some have several. The list is limited to them. There may be further records. A record mostly stands for its own series of concentrations, not given here; some values may only mark the edge of a range.

`COc1ccc2c(c1)NC(=O)CN2c1nc(C)nc2ccccc12`: the TGI was 3.57 nM and > 100 µM.

Values taken from PubChem BioAssay (NCI).
